# Data: PubChem BioAssay AID686992 (Broad Institute, 2013)
# Hit rate of the full screen: of about 260,000 compounds, about 960 (0.37%) were called active. The shares of active, inactive and inconclusive entries below differ from those in the screen.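 The calls were made as follows: active = mean E-selectin-positive cell signal at least 10% of the positive control, reached in at least 60% of replicates, without over 20% cell loss; inconclusive = no rule given, readout overlaps actives, possibly toxicity-flagged; inactive = the rest, including those meeting only one limit.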
# Biological target: E-selectin (Homo sapiens) (UniProt P16581)
# Sequence of UniProt P16581 (P16581 whole entry, looked up): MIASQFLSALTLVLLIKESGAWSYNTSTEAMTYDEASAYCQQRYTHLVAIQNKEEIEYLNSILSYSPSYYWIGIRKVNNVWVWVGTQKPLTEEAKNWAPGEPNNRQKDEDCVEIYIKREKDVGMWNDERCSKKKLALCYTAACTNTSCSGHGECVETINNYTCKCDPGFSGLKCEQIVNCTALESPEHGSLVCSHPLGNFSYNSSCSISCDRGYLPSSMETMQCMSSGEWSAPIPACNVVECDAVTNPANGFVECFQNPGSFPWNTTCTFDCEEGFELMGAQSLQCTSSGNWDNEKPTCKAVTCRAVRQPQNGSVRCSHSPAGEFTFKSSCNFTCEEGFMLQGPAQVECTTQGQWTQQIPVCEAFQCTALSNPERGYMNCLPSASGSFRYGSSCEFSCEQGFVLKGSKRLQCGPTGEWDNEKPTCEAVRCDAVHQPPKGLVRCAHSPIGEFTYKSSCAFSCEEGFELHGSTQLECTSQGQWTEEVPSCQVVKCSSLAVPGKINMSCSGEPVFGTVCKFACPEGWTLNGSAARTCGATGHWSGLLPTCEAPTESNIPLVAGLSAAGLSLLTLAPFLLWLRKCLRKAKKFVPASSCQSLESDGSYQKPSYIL
# Experiment: inducers of endothelial E-selectin expression – imaging, HUVEC, immunofluorescence imaging, single point, primary screen (AID 686992);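 also: signal is the percent of cells scored E-selectin positive by PE staining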
# Details: at 7.58 µM, stronger effect = higher value, normalized: neutral wells 0, TNF-alpha wells 100
# Summary of the method: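 Read-out: % PE-positive cells | Test system: HUVEC | Doses: One compound dose added by pin transfer | Buffer or medium: EGM-2 over gelatin coat | Signal: Immunofluorescence imaging | Benchmarks: TNF-alpha, DMSO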
row,Compound,activation
1,CCCN1C[C@H](C)[C@@H](OC)CN(C)C(=O)c2cc(NC(=O)c3cccc(OC)c3)ccc2OC[C@@H]1C,inactive: 9.06%
2,COc1cccc(CN(C)C(=O)C2CCC(=O)N(Cc3cccc(F)c3)C2)c1 (centres undefined),inconclusive: 70%
3,COCC(=O)N1C[C@H](C)[C@H](OC)CN(C)C(=O)c2cc(NC(=O)C3CCC3)ccc2OC[C@@H]1C,inactive: -0.21%
4,Cc1ccc(S(=O)(=O)N[C@H]2CC[C@@H](CCNC(=O)C3CCCC3)O[C@@H]2CO)cc1,inconclusive: 39.4%
5,CCCCOCCCNC(=O)C[C@@H]1C[C@@]2(C(=O)OC)CCCCC=C2N(CCc2ccc(OC)c(OC)c2)C1=O,inconclusive: 37.4%
6,O=C1c2ccccc2C(c2nnnn2Cc2ccccc2)N1CCc1ccccc1F (centres undefined),inconclusive: 27.8%
7,O=C(c1cc(-c2ccc(Cl)cc2)n[nH]1)N1CCN(C(=O)c2ccco2)CC1,inconclusive: 59.1%
8,C[C@H](CO)N1C[C@H](C)[C@H](CN(C)C)Oc2cc(C3=CCCC3)ccc2S1(=O)=O,inactive: -0.173%
9,CC(C)NC(=O)N(C)C[C@H]1Oc2ncc(-c3cccc(C#N)c3)cc2C(=O)N([C@H](C)CO)C[C@@H]1C,inconclusive: 73.4%
10,COc1cccc(S(=O)(=O)N(C)C[C@H]2Oc3cc(C#CCC(C)C)ccc3S(=O)(=O)N([C@@H](C)CO)C[C@@H]2C)c1,inactive: 0.715%
11,CCCCCCCCCCCCC/C=C/[C@@H](O)[C@@H](N)CO,inconclusive: 36.3%
12,C[C@@H]1CN([C@H](C)CO)C(=O)c2cc(C#Cc3cccc(F)c3)cnc2O[C@H]1CN(C)C(=O)C1CCC1,active: 67.2%
13,C[C@@H]1CN([C@@H](C)CO)C(=O)c2cc(NS(=O)(=O)c3cn(C)cn3)ccc2O[C@H]1CN(C)S(=O)(=O)c1ccc(Cl)cc1,inactive: -0.0545%
14,C[C@@H]1CN([C@@H](C)CO)C(=O)c2cc(NC(=O)c3ccncc3)ccc2O[C@H]1CN(C)C(=O)Nc1ccc(F)cc1,inactive: -3.25%
15,O=C(C[C@H]1C[C@H]2c3cc(NC(=O)CC4CC4)ccc3O[C@H]2[C@@H](CO)O1)NCc1ccccc1F,inconclusive: 56%
16,C[C@H](CO)N1C[C@H](C)[C@H](CN(C)Cc2ccncc2)Oc2ccc(NS(C)(=O)=O)cc2CC1=O,active: 257%
17,CCN1/C(=C/C(C)=C/c2sc3ccccc3[n+]2CC)Sc2ccccc21,active: 155%
18,COc1ccccc1-c1cc(SC)c(C#N)c(=O)o1,inconclusive: 70.8%
19,Cc1cc(C(=O)Nc2ccc(Br)cc2F)n(-c2ccccc2)n1,inconclusive: 28.4%
